According to the supplement of paper PMC10338343:
± gives the standard deviation. This is a selection; strong and weak results do not stand in their true shares.

Tested on: MIWI (PIWIL1) piRISC loaded with L1MC piRNA (30 nt)
Assay: pre-steady-state target cleavage rate (min^-1); MIWI and MILI are mouse PIWI proteins and EfPiwi is from a freshwater sponge; tags in brackets are library labels; higher = faster piRNA-guided slicing of the target
Conditions: guide: L1MC piRNA 5'p-UAACUAAAUACUAUGCAAGCUGUAGGUCCU; auxiliary factor: 500 nM mouse GTSF1
In short: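 Sequencing of uncleaved targets, normalised to depth and to weakly complementary targets, was the readout of this Cleave-'n-Seq assay. A transcribed, DNA-blocked target RNA library (0.1 nM) was mixed with 1 nM active affinity-purified piRISC carrying one synthetic guide, with or without 500 nM GTSF1 partner protein, in HEPES–potassium acetate buffer at 33 °C for 0–8 or 0–960 min. Three trials were pooled, k3 was capped at 0.0001 min^-1, and a burst-and-steady-state fit gave the pre-steady-state cleavage rate.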

Sequence | pre-steady-state target cleavage rate
UCCAGGUACAGCUUGCAUAGUAUUUAGUUA | 1.09 ± 0.04
UGGACCUACAGCUUGGAUAGUAUUUACUUA | 0.492 ± 0.053
UCCUGGAUGAGCUUGGAUAGUAUUUAGAUA | 0.0843 ± 0.015
UCGACCUACAGCUUGCAUAGUAUUUAGUCUA | 0.165 ± 0.024
AGGACGUACAGCUUGGAUAGUAUUUAGUUA | 1.36 ± 0.067
UCCUGCUACAGCUUGCAUAGUAUUAACUUA | 0.0939 ± 0.012
AGGACCUACUGCUUGCAUAGUAUUUAGAUA | 0.471 ± 0.048
UCCUGGAUGAGGUUGCUUAGUAUUUAGUUA | 0.0351 ± 0.0041
UCCUGGAUGUGCUUGCAUAUUAUUUAGUUA | 0.205 ± 0.014
UCCUGCUACAGCUUGCAUAGUAUUUUGUAA | 0.274 ± 0.043
UCGAGCUACAGCUUGCAUAGUAUUUAGUUA | 1.41 ± 0.062
AGGACCUACAGCUUGCAUAGUUAAUAGUUA | 0.2 ± 0.034
UCCUGGAUCAGCUUGCAUAGUAAUUAGUAA | 0.248 ± 0.034
UCCUCGUAGAGCUUGCAUAGUAUUUAGUUA | 1.02 ± 0.048
UGGACCUACAGCUUGCAUAGUAUUUAUGUUA | 0.48 ± 0.041
AGGACCUACAGCUUUCAUAGUAUUUAGUUA | 0.644 ± 0.025
UCCUGCUUCAGCUUGCAUAGUAUUAAGUUA | 0.343 ± 0.035
UGGACCUAGUCCUUGCAUAGUAUUUAGUAA | 0.125 ± 0.026
UCGACCUACAGCUUACAUAGUAUUUAGUUA | 1.59 ± 0.062
UCCACCUACAGCUUGCAUAGUAUUUAGUCA | 0.565 ± 0.052

Sequence | pre-steady-state target cleavage rate
UCCUGGUACAGCUUGCAUACUAUUUAGUAA | 0.14 ± 0.046
UCGACUCUACAGCUUGCAUAGUAUUUAGUUA | 1.48 ± 0.06
UCCUGGAUCAGCUUGCUUAGUAUUUAGAAA | 0.116 ± 0.021
AGGACCUACAGCUUGGAUAGUUUUUAGUUA | 0.388 ± 0.016
UCCUGCUACAGCUAGCAUAGUAUUUAGUAA | 0.524 ± 0.038
UGGACCUACAGCAUGCUUAGUAUUUAGUUA | 0.877 ± 0.056
UCCUGGAUGUCCUUGCAUAGUAUUCAGUUA | 0.0187 ± 0.0062
UCGACCUACAGCUUGCAUAGUAUUAUCUUA | 0.32 ± 0.037
UCGACCUACUGCUUGCAUACUAUUUAGUUA | 0.345 ± 0.014
UCCUGGAUGUGCUUGCAAACUAUUUAGUUA | 0.00627 ± 0.003
UCCUGGAUGUCCUUGCAUAGUAUGUUAGUUA | 0.0145 ± 0.0049
UCGACCAACAGCUAGCAUAGUAUUUAGUUA | 1.08 ± 0.046
UCCUGCUACAGCUUGCAUAGUAUAUAGUAA | 0.253 ± 0.054
UCCUGGAACAGCUUGCAAAGUAUUUAGUUA | 1.09 ± 0.039
UGGACCUACAGCAUGCAUAGUAUUUAGAUA | 0.461 ± 0.035
UCCACCUACUCCUUGCAUAGUAUUUAGUAA | 0.38 ± 0.036
UCCUGGUACAGCGUUGCAUAGUAUUUAGUUA | 0.434 ± 0.053
UCCACCUACAGCAUGCAUAGUUUUUAGUUA | 0.278 ± 0.023
UCGACCUACAGGUUGCAUAGAAUUUAGUUA | 0.315 ± 0.021
AGGACCUACAGCUAGCAUAGUAUUAAGUUA | 0.827 ± 0.068
